The whole screen tested about 410,000 compounds, of which about 7,200 (1.8%) were called active. This list was built around the results that the source calls inconclusive (neither active nor inactive); the mix of calls is not that of the screen. The call rests on the fitted dose curve; in most records, active means well fitted activation curve with a large enough effect; inconclusive means small, poorly fitted or top-dose-only effect, or another doubt; inactive means no such curve, though single readings can be large or run the other way. Potencies of inconclusive entries are left out as doubtful fits.
Assay: qHTS of TDP-43 Inhibitors; further: nearly all actives have a fitted effect of over 50% in size; on growth rescue (activation): % of control where 0% means no effect
Conditions: TDP-43 expressing yeast growth rescue, BacTiter-Glo, 24 h; growth rescue (activation): at 46.1 µM (top of the series) unless noted
Method in brief: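 Readout is BacTiter-Glo luminescence of cell growth, so inhibitors register as activators. TDP-43-expressing yeast at OD600=0.02 in galactose medium, after raffinose pregrowth to mid-log, were incubated with compound for 24 hr at 30 deg C.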
Potency means the concentration at half of the fitted maximal effect; tags describe the fitted curve by direction and shape.

Structure (SMILES) | growth rescue (activation) | Potency
Cc1ccc(C)c(NC(=O)CC2NCCNC2=O)c1 (configuration not stated) | inactive: 8.8% | 
CCc1nnc(SCC(=O)Nc2ccccc2Cl)nc1CC |  | inconclusive [activator, partial curve]
CCC(=O)Nc1ccc(NCc2ccc(-c3ccccc3)cc2)cc1 |  | active: 12.6 µM
O=[N+]([O-])c1nn(-c2ccccc2)n(O)c1=NCc1ccc2c(c1)OCO2 | inactive: 24.6% | 
COCc1nnc(NS(=O)(=O)c2ccc(NC(C)=O)cc2)s1 | inactive: 3.92% | 
CC1=C(C#N)C(NC(=O)c2ccccc2Cl)(C(F)(F)F)C(=O)N1 (configuration not stated) |  | inactive
Cc1ccc2nc(SCC(=O)N/N=C/c3ccc(C(=O)O)cc3)cc(C)c2c1 |  | inconclusive [activator, partial curve]
CCN(C(=O)c1cc2c(=O)n3cccc(C)c3nc2n1CCCOC)C1CCCCC1 |  | inconclusive [activator, single point]
CCn1cc(C(=O)NC(=S)Nc2ccccc2Br)cn1 |  | active: 14.1 µM
CC1=NNC(=O)/C1=C\c1cn(-c2ccccc2)nc1-c1ccc(F)cc1 |  | active: 11.2 µM
c1csc(-c2nnc(-c3ccc(N4CCOCC4)cc3)o2)c1 |  | inconclusive [activator, single point]
COc1ccc(CC(=O)Oc2ccc(C)cc2Br)cc1OC |  | inconclusive [activator, partial curve]
CCOC(=O)c1cc2c(ccn2-c2ccc(F)cc2)n1CC(=O)N1CCN(C(=O)c2ccco2)CC1 | inactive: 2.97% | 
O=C(O)CCC(=O)N1CCN(c2ncccc2C(F)(F)F)CC1 | inactive: -7.07% [at 1.82 µM] | 
O=C(CCc1ccccc1)NCC1OCCc2ccccc21 (configuration not stated) |  | inconclusive [activator, partial curve]
CN(C(=O)C1CCC(=O)N(CCc2ccc(Cl)cc2)C1)C1CCOCC1 (configuration not stated) | inactive: 4.54% | 
CC1CC(c2ccccc2)=Nc2ccccc2N1 (configuration not stated) |  | inconclusive [activator, partial curve]
CCC(C)(C(=O)NC1CCCCC1)N(C(=O)CNC(C)=O)c1c(C)n(C)n(-c2ccccc2)c1=O (configuration not stated) | inactive: -5.57% | 
COc1ccc(OC)c(NC(=O)Nc2ccc(O)c3ccccc23)c1 | inactive: -31.9% | 
Cc1ccc2c(=O)cc(C(=O)Nc3nc4ccc(Cl)cc4s3)oc2c1C | inactive: 5.98% | 
COc1cccc(-c2ncnn2-c2sc3c(c2C#N)CCCCC3)c1OC | inactive: 25% | 
CCN(C(=O)CSc1nc2ncccc2[nH]1)c1ccc(C(C)C)cc1 |  | inconclusive [activator, partial curve]
Cc1ccc(CN(C(=O)COc2ccc([N+](=O)[O-])cc2)c2ccccn2)cc1 | inactive: 0% | 
S=C(NCc1ccccc1)Nc1cccc2ccccc12 |  | inconclusive [activator, single point]

Structure (SMILES) | growth rescue (activation) | Potency
Cc1ccc(NC(=O)CCn2c(=O)c3cccn3c3ccccc32)cc1C |  | inconclusive [activator, partial curve]
Cc1noc(C)c1COC(=O)Cc1ccc(Cl)cc1 |  | inconclusive [activator, partial curve]
O=C(Nc1cc(C(F)(F)F)ccc1N1CCCCC1)C1=COCCO1 |  | inconclusive [activator, partial curve]
CC(C)c1ccc(S(=O)(=O)Nc2ccc3c(c2)OCO3)cc1 |  | inconclusive [activator, partial curve, poor fit]
CCc1noc(C)c1C(=O)Nc1nc2c(C)cc(C)cc2s1 |  | inconclusive [activator, partial curve]
c1ccc(-c2ccccc2-n2cnnn2)cc1 |  | inconclusive [activator, single point]
CCOc1ccc(N2CC(c3nc4ccccc4n3CCCOc3ccccc3)CC2=O)cc1 (configuration not stated) |  | inconclusive [activator, partial curve]
Cc1c(C(=O)NCC(c2ccc(Cl)cc2)N2CCOCC2)oc2ccccc12 (configuration not stated) |  | inconclusive [activator, partial curve]
CCCCOc1ccc(C(=O)Oc2cc(C)[nH]c(=O)c2[N+](=O)[O-])cc1 |  | active: 17.8 µM
O=C(O)CC/C(=N\Nc1ccc(Cl)cc1)c1cccs1 |  | inconclusive [activator, single point]
O=C(OCc1ccccc1)N1CCCC2CC1c1ccccc12 (configuration not stated) |  | inconclusive [activator, partial curve]
COc1ccc(NC(=O)/C(Cl)=C(/Cl)S(=O)(=O)Cc2ccccc2)cn1 |  | active: 3.16 µM
NC1=C(Br)C(=O)c2ncccc2C1=O |  | active: 11.2 µM
C[C@H](CO)N1C[C@H](C)[C@@H](CN(C)S(=O)(=O)c2cccc(C#N)c2)OCc2cn(nn2)CCCC1=O | inactive: 0% | 
COc1ccc(-c2cc3onc(-c4c(Cl)cccc4Cl)c3c(=O)n2C)cc1 |  | inconclusive [activator, partial curve]
Cc1c(Br)cc(C(=O)N2CCCCCC2)c(C)c1C |  | inconclusive [activator, partial curve, poor fit]
COc1ccccc1N1CCN(C(=O)c2nc(SC)ncc2Cl)CC1 |  | active: 35.5 µM
COC(=O)c1ccc(CN2C(=O)c3ccccc3C2=O)cc1 |  | inconclusive [activator, partial curve]
Cn1ncc2c(N3CCN(c4cccc(Cl)c4)CC3)ncnc21 |  | inconclusive [activator, partial curve]
CC(C(=O)NCCCc1ccccc1)n1cccc1C(=O)c1ccccc1 (configuration not stated) |  | inconclusive [activator, partial curve]
COC(=O)c1ccc2nc(-c3cccc(Cl)c3)c(Cc3ccsc3)n2c1 |  | inconclusive [activator, single point]
CC(Oc1ccc(F)cc1)C(=O)N1CCC(c2nc3ccccc3s2)CC1 (configuration not stated) |  | inconclusive [activator, single point]
Cc1ccc(C)c(N2CCN(S(=O)(=O)c3ccc(-c4cc(C(F)(F)F)on4)s3)CC2)c1 | inactive: 19.2% | 
CC(=O)OCC(=O)[C@@]1(O)CC[C@H]2[C@@H]3CCC4=CC(=O)CC[C@]4(C)[C@H]3[C@@H](O)C[C@@]21C |  | inconclusive [activator, partial curve]

Structure (SMILES) | growth rescue (activation) | Potency
CCCc1ccc(C2=Nn3c(nnc3C(C)C)SC2)cc1 | inactive: 15.3% | 
CCc1ccccc1OCC(=O)Nc1ccc2c(c1)OCCO2 |  | inconclusive [activator, single point]
CCOc1ccc(N2CC(C(=O)N3CCCc4ccccc43)CC2=O)cc1 (configuration not stated) |  | inconclusive [activator, single point]
N#Cc1c(Nc2ccccc2Cl)s[nH]c1=O |  | inconclusive [activator, single point]
Cc1ccsc1-c1n[nH]c(=S)n1CC(C)C |  | inconclusive [activator, partial curve]
O=C(Nc1ccc2c(c1)OCCO2)c1cc(-c2ccccc2)nc2ccccc12 |  | inconclusive [activator, single point]
Cc1cc(S(=O)(=O)Nc2cc3c(cc2Cl)n(C)c(=O)c(=O)n3C)ccc1F | inactive: 0.0701% | 
COc1ccccc1C(=O)Nc1nnc(CCc2ccccc2)s1 |  | inconclusive [activator, single point]
CC(=O)Nc1ccc(OS(=O)(=O)c2c(C)cc(C)cc2C)cc1 |  | inconclusive [activator, partial curve]
Cc1ccc(NC(=O)c2cc3c(s2)CCCC3)cc1 |  | inconclusive [activator, single point]
Cc1cc(C)c(S(=O)(=O)NCCc2sc(-c3cccnc3)nc2C)c(C)c1 |  | inconclusive [activator, single point]
Cc1ccc(C)c(S(=O)(=O)N2C(=S)NC(=O)C2C(C)C)c1 (configuration not stated) |  | active: 35.5 µM
CCC(c1nc2ccccc2c(=O)n1-c1nc2ccccc2s1)N1C(=O)c2ccccc2C1=O (configuration not stated) |  | inconclusive [activator, partial curve, poor fit]
O=C(CN1C(=O)COc2ccc(S(=O)(=O)N3CCOCC3)cc21)Nc1ccc(F)c(Cl)c1 | inactive: -0.624% | 
Fc1ccccc1COc1ccc(/C=N/n2cnnc2)cc1 |  | active: 11.2 µM
O=C(C(=O)c1ccc(O)cc1)c1ccccc1 |  | inconclusive [activator, partial curve]
COc1ccc(-c2nnc(SCC(=O)N3CCc4ccccc4C3)o2)cc1 |  | inconclusive [activator, single point]
COc1ccc(OC)c(NC(=O)CSc2ccccc2)c1 |  | inconclusive [activator, partial curve]
Cc1ccc(S(=O)(=O)N2CCOC23CCN(C(=O)c2ccc(Cl)cc2Cl)CC3)cc1 |  | inconclusive [activator, single point]
CCOc1ccccc1C(=O)Nc1cc(OC)ccc1OC |  | inconclusive [activator, single point]
Cc1ccc(C)c2[nH]c(=O)c(CN(Cc3ccco3)C(=O)Nc3ccccc3)cc12 | inactive: 14.7% | 
CCCNC(=O)C1(C)CCCN(C(=O)c2c(F)ccc(C)c2F)C1 (configuration not stated) |  | inconclusive [activator, full curve]
COc1ccc(C=CC(=O)c2c(OC)cc(OC)c(OC)c2O)cc1 | inactive: 10.9% | 
O=C(/C=C/c1ccco1)OCC(=O)c1ccc(OC(F)F)cc1 |  | inconclusive [activator, single point]

From PubChem BioAssay AID652104 (National Center for Advancing Translational Sciences (NCATS), 2013)
